In all, about 48,000 compounds went through this assay and about 450 (0.94%) were called active. Inconclusive results (about 19%) are left out. The call rests on the fitted dose curve; in most records, active means well fitted inhibition curve with a large enough effect; inconclusive means small, poorly fitted or top-dose-only effect; inactive means no such curve, though single readings can be large or run the other way. This is one part of the list.
assay: Primary qHTS for Identification of Small Molecule Inhibitors of Huntingtin Promoter Activity; settings: HEK293 HTT promoter firefly luciferase reporter (activity 0% = vehicle and -100% = no light), 24 h; series mostly up to 57.5 µM; activity change, negative = inhibition: at the top concentration; further: nearly all actives have a fitted effect of over 50% in size
Procedure, shortened: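 HEK293 luciferase promoter-reporter cells (2,500/well) plated 24 h, then compounds added at up to 57.5 uM final for 24 h at 37 °C. Firefly luminescence by Dual-Glo, normalized to vehicle (0%) and zero RLU (-100%).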

Activity change, negative = inhibition, inactive:
CCC(CC)C(=O)OCc1cc(=O)n2nc(C3CCCCC3)sc2n1 -2.49%, CC(C)(C)OC(=O)N1CCC(c2c(C(=O)NCCc3ccsc3)cnn2-c2ccccc2Cl)CC1 -8.46%, COc1ccc(N2CC(NC(=O)COc3ccc(F)cc3)CC2=O)cc1OC (configuration not stated) -8.19%, CCOCCn1c(C2CCN(CCc3ccc(C(C)(C)C(=O)O)cc3)CC2)nc2ccccc21 -0.523%, CCOC(=O)CC(NC(=O)c1cc2cc(Br)cc(OC)c2oc1=O)c1ccc(OC)cc1 (configuration not stated) -9.68%, CCOC(=O)C(=O)NCC(c1cccnc1)N1CCN(c2ccccc2)CC1 (configuration not stated) -6.2%, CCC1CN(C(=O)NCc2ccccc2)c2cc(Cl)ccc2O1 (configuration not stated) -15.7%, CCOC(=O)c1ccc(NC(=O)CSc2ccc(-c3ccccn3)nn2)cc1 -28.7%, CCN(CC)c1cc(C)c2cc(NC(=O)c3ccccc3Cl)ccc2n1 -12.6%, COc1ccc(S(=O)(=O)NCCc2nnc3ccc(SCC(=O)Nc4cc(C)cc(C)c4)nn23)cc1 -11.7%, Cn1c(=O)n(C)c2cc(N3CCOCC3)c(NC(=O)c3ccc(Cl)cc3)cc21 10.2%, O=C(NCc1ccc2c(c1)CCN2C(=O)c1ccncc1)c1ccccc1Cl -6.96%, Cn1c(=O)c2c(nc(CN3CCN(c4ccccc4F)CC3)n2Cc2ccccc2F)n(C)c1=O -13.9%, COc1ccc(OC)c(CCNC(=O)c2cc3cccc4c3n2CC(C)S4)c1 (configuration not stated) -27.1%, CCSc1ncc(Cl)c(C(=O)Nc2ccc(S(=O)(=O)Nc3ncccn3)cc2)n1 -5.88%, COc1cccc(CNC(=O)CCCn2ncn3c(cc4occc43)c2=O)c1OC -10.9%, CCCOC(C(=O)OC1CCN(C)CC1)(c1ccccc1)c1ccccc1 -13.1%, Cc1cccc(C(=O)Nc2nc3nc(-c4ccccc4)cc(=O)n3[nH]2)c1 -15.4%, CCOc1ccc(CCNC(=O)C2CCN(Cc3nc(-c4ccc(OC)c(OC)c4)oc3C)CC2)cc1OCC -1.5%, COc1cc(-c2nc(-c3ccc4c(c3)[nH]c(=O)n4C)no2)cc(OC)c1OC -10%, CCOc1ccccc1NC(=O)C1CCN(S(=O)(=O)c2ccc3[nH]c(=O)ccc3c2)CC1 -5.51%, Cc1ccn2c(=O)cc(COc3ccc(NC(=O)COc4ccccc4)cc3)nc2c1 -4.72%, CCC(=O)N1CCc2cc(Br)cc(S(=O)(=O)N3CCCC(C(=O)NCc4ccc(F)cc4)C3)c21 (configuration not stated) -2.48%, N#Cc1ccccc1NC(=O)C(=O)NCCc1csc(-c2ccc(C(F)(F)F)cc2)n1 -1.91%, CCc1ccc(NC(=O)COC(=O)CCCC2=NS(=O)(=O)c3ccccc3N2)cc1 0.321%, Cc1ccc2nc(COc3ccccc3NC(=O)c3ccccc3C)cc(=O)n2c1 6.3%, COc1ccc(-c2nnc(SCC(=O)Nc3cc(OC)ccc3OC)nc2-c2ccc(OC)cc2)cc1 -9.54%, CCc1cccc(C)c1NC(=O)Cn1c(=O)n(-c2ccc(C)cc2)c(=O)c2c1cnn2C -8.36%, COc1ccc(CCn2c(=O)c3cccnc3n(CC(=O)Nc3c(C)cccc3C)c2=O)cc1OC 2.28%, Cc1cccc(CCNC(=O)c2ccc3c(c2)nc2n3CCC(C)C2)c1 (configuration not stated) 4.09%, COc1ccc(OC)c(NC(=O)c2ccc3c(SCC(=O)O)c4c(nc3c2)CCCC4)c1 -21.5%, COc1cc2c(cc1OC)C1CC(=O)C(CC(C)C)CN1CC2 (configuration not stated) -6.99%, Cc1cccc(-c2noc(-c3ccc(NCc4ccco4)c([N+](=O)[O-])c3)n2)c1 23.6%, O=C(c1ccco1)N1CCN(c2nc3c(F)cc(F)cc3s2)CC1 20.6%, Nc1ccc(S(=O)(=O)NC(=O)c2ccccc2)cc1 7.21%, COc1cccc(-c2ccc(-c3noc(-c4ccccc4Br)n3)c(OC)n2)c1 -1.67%, CCC(=O)N1c2ccccc2CC1C(=O)NCc1cccc(OC)c1OC (configuration not stated) -10.1%, COc1cc(OC)cc(C(=O)Nc2cc(-c3nc4ccccc4[nH]3)ccc2C)c1 -24.5%, O=C(/C=C/c1ccco1)Nc1ccc(F)cc1 94%, COC(=O)c1c(SC)nc2ccccc2c1OCc1ccc(Br)cc1 -23%, CCOC(=O)C1CCCN(c2nc3c(S(=O)(=O)c4ccc(Br)cc4)nnn3c3ccsc23)C1 (configuration not stated) 4.89%, CCOC(=O)CN1CCCC1=O -1.87%, OC[C@H]1O[C@@H](O[C@@H]2[C@@H](CO)O[C@](O)(CO)[C@H]2O)[C@H](O)[C@@H](O)[C@H]1O 8.34%, Cc1ccccc1CNC(=O)c1nn(-c2ccccc2F)nc1CO -25.8%, O=c1c2sccc2n(Cc2cc(=O)n3ccccc3n2)c(=O)n1-c1cc(F)ccc1F -6.77%, CCn1nc(-c2ccccc2)c(-c2ccccc2)c(C(=O)Nc2ccc(S(N)(=O)=O)cc2)c1=O -4.63%, COc1ccc(C(=O)Nc2ccc(-c3nnc4n3CCCCC4)cc2)cc1 -10.3%, COc1cccc2c1Oc1ncccc1N(C(=O)CCC(=O)NCCC(C)C)C2 -4.6%, O=S(=O)(c1ccc(Cl)cc1)c1nc(-c2ccccc2Br)oc1NCc1ccccc1 -27% [at 11.5 µM], CCN1CCN(C(=O)c2ccc3c(c2)N(Cc2cccc(Cl)c2)C(=O)c2ccccc2S3=O)CC1 (configuration not stated) -4.79%, CCN(CC)CCCNc1cc(-c2ccccc2)nc(C)n1 -8.79%, COc1ccc(-n2cc(C(=O)N(CCN(C)C)Cc3ccccc3)c3ccccc3c2=O)cc1 -3.68%, COc1cc(C(=O)N(Cc2ccc(F)cc2)Cc2ccco2)cc(OC)c1OC -17.5%, COc1ccc(Cn2c(=O)[nH]c3cc(C(=O)NCCC(C)C)ccc3c2=O)cc1 0.408%, COc1ccc(CNC(=O)CS(=O)Cc2nc(-c3ccc(OC)c(OC)c3)oc2C)cc1 (configuration not stated) 7.33%, CCn1c(C)c(C)c2cc(C(=O)NCCCN3CCCCC3C)ccc21 (configuration not stated) 2.9%, CCOC(=O)c1nc(Nc2ccc(OC)cc2)c2ccccc2n1 -18.5%, Cc1ccccc1Nc1c(-c2cccc(O)c2)nc2ccc(Br)cn12 -21.8%, CC(C)CCNC(=O)c1ccc(Cn2c(=O)c3cccn3c3cccnc32)cc1 -12.3%, Cc1ccc(-c2nn(-c3cccc([N+](=O)[O-])c3)c3c2cnc2ccc(F)cc23)cc1 0%, Cc1cc2c(n1-c1ccc(C(=O)NCC(C)c3ccccc3)cc1)CCCC2 (configuration not stated) 8.46%, CCOc1ccc(CNC(=O)c2ccc3c(c2)sc2nc(-c4ccc(OC)cc4)cn23)cc1 -18%, COc1cc(OC)c(NC(=O)CSC2=Nc3ccccc3N=C(c3ccc(F)cc3)C2)cc1Cl 0.201%, COc1ccc(-n2c(=O)c3c(c4cc(OC)ccc4n3C)n(CC(=O)NCC3CCCO3)c2=O)cc1 (configuration not stated) -12.3%, COc1ccc(NC(=O)Cn2c(=O)n(-c3cccc(C)c3)c(=O)c3c2c2cc(C)ccc2n3C)cc1OC -3.15%, C#CCSc1nc2sc3c(c2c(=O)n1-c1cccc(OC)c1)CCN(C(C)=O)C3 -23.1%, CCOC(=O)c1ccc(-c2ccc(/C=C(\C#N)C(=O)Nc3c(C)cccc3Cl)o2)cc1 1.7%, COc1cc(Cl)c(NC(=O)c2cc(S(=O)(=O)N3CCOCC3)cn2C)c(OC)c1 -0.465%, CCc1nn2c(-c3ccco3)ccnc2c1-c1ccc(F)cc1 31.4%, CC(C)(C)NC(=O)Cn1cc(S(=O)(=O)Cc2ccc(F)cc2)c2ccccc21 -3.84%, COCCn1c(SCC(=O)c2ccc(OC)cc2)nc2cc(C(=O)NC3CCCC3)ccc2c1=O -4.5%, CCCOc1ccc(-c2nonc2NC(=O)COc2ccc(C)cc2)cc1OCCC 1.51%, CC(=O)c1c(C)oc2c(Cl)cc(NS(=O)(=O)c3cc(C)c(C)cc3C)cc12 -7.68% [at 11.5 µM], Cc1ccc(S(=O)(=O)c2nnn(CC(=O)Nc3ccccc3C)c2N)cc1C 0.916%, O=C(CCC1N=C2c3ccccc3N=C(SCc3ccccc3Cl)N2C1=O)NCc1cccs1 (configuration not stated) -11.8%, O=C(NCc1ccccc1F)C(=O)NCC(c1cccs1)S(=O)(=O)c1cccs1 (configuration not stated) -14.4%, CCOc1ccc(OCC)c(NC(=O)c2cnc3c(-c4ccccc4)c(C)nn3c2C)c1 -12.9%, COC(=O)c1cc2oc(C)cc2n1Cc1cccc(Cl)c1 -26.9%, Cc1ccc(-n2c(=O)c3c(c4cc(C)ccc4n3C)n(CC(=O)NCCC3=CCCCC3)c2=O)cc1 8.47%, O=c1c2oc3ccccc3c2n(Cc2cccc(Cl)c2)c(=O)n1Cc1ccc2c(c1)OCO2 -23.5%, COc1ccccc1OCC(=O)NCC1(N2CCOCC2)CCCCC1 -17.7%, O=C(NCc1cccc(Cl)c1)c1ccc(CS(=O)Cc2ccccc2Cl)o1 (configuration not stated) -27.2%, O=c1oc2c(F)cc(F)cc2cc1S(=O)(=O)c1ccc(F)cc1 -21.1%, CCOc1ccc(N(CC)C(=O)c2cc3c(=O)oc4ccccc4c3s2)cc1 -6.63%, NC(=O)c1ncn([C@@H]2O[C@H](CO)[C@@H](O)[C@@H]2O)c1N 12.8%, Cc1ccn2c(=O)c(C(=O)Nc3ccc(F)c(C(F)(F)F)c3)cnc2c1 0.123%, CCOc1ccc(-c2nonc2NC(=O)c2oc3ccc(Cl)cc3c2C)cc1 -12.4%, COc1cccc(NC(=O)c2oc3ccccc3c2NC(=O)COc2ccccc2C)c1 21.3%, COC(=O)c1ccccc1NC(=O)CCCn1nc(C)c2sc3ccccc3c2c1=O -0.614%, COc1ccc(-c2nnn3c2nc(NCc2ccccc2)c2ccccc23)cc1 16.5%, CC1=C(C(=O)Nc2ccc(C)cc2C)C(CC(C)C)n2nc(SCc3ccccc3C)nc2N1 (configuration not stated) -6.33%, COc1ccc(-c2ccc(NS(=O)(=O)c3ccccc3)cc2)nn1 -19.7%, CCOc1ccc(-c2cc(C(=O)NCc3ccc(OCC)c(OC)c3)[nH]n2)cc1 -11.5%, O=c1c2sc3ccccc3c2n(Cc2ccc(F)cc2)c(=O)n1Cc1ccccc1 -8.37%, CCc1cccc(CC)c1NC(=O)CCS(=O)(=O)c1ccc(Br)cc1 -22.5%, Cc1cc(C)n2nc(SCC(=O)Nc3ccc(O)cc3)nc2n1 -6.28%, Cc1ccc(NC(=O)CSc2ncccc2C(=O)Oc2ccccc2Cl)cc1Cl -16.2%
